Patent publication US12036189B2, “Method of treating major depressive disorder” (priority 2018, dated 2024)

Test system: bone marrow cells of Crl:CD(SD) rats
Assay: Mammalian erythrocyte micronucleus test
Conditions: male or female rats, oral gavage

## CN[C@]1(c2ccccc2Cl)CCCCC1=O [esketamine, (2S)-2-(2-Chlorophenyl)-2-(methylamino) cyclohexanone]
  induction of micronucleated polychromatic erythrocytes or bone marrow cell toxicity (study conclusion): not shown any evidence
